Measurements from PubChem BioAssay AID1347120 (National Center for Advancing Translational Sciences (NCATS), 2019).
Out of some 390,000 compounds screened, about 930 (0.24%) were called active. This list was built around the results that the source calls inconclusive (neither active nor inactive); the mix of calls is not that of the screen. Calls come from the whole dose curve; as a rule, active = well fitted activation curve with a large enough effect; inconclusive = small, poorly fitted or top-dose-only effect; inactive = no such curve, though single readings can be large or run the other way. Where the call is inconclusive, the potency comes from a doubtful curve fit.

Experiment: qHTS for Suppressors of FUS Proteinopathy: Primary screen using FUS-linked yeast assay; note: nearly all actives have a fitted effect of over 55% in size
Conditions: S. cerevisiae FUS-expressing, OD600, 24 h; Potency: growth rescue; series mostly up to 76.6 µM
In short: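 Restored growth of FUS-toxic S. cerevisiae, read as 600 nm absorbance after 24 h at 30C in galactose medium (starting OD 0.005). Controls CP55940 and DMSO.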
Potency is the fitted concentration of half-maximal effect; tags give direction and shape of the fitted curve.

| Structure (SMILES) | Potency |
| --- | --- |
| O=c1oc2ccccc2cc1-c1csc(NN=C2CCCCC2)n1 | active: 12.6 µM |
| CCC1CN(C(=O)NCc2ccccc2)c2cc(C)ccc2O1 (stereo unspecified) | inconclusive: 35.5 µM [activator, single point] |
| COc1ccc(NC(=O)N2CCN(S(=O)(=O)c3ccc4c(ccn4C)c3)CC2)cc1OC | inconclusive: 28.2 µM [activator, partial curve, poor fit] |
| c1ccc(-c2nc(N3CCN(c4ccccc4)CC3)nc(-n3ccnc3)n2)cc1 | inactive |
| Cc1ccc2occ(CC(=O)Nc3ccc(S(=O)(=O)N4CCCC(C)C4)cc3)c2c1 (stereo unspecified) | inconclusive: 28.2 µM [activator, partial curve, poor fit] |
| COc1ccc(NC(=O)CN2C(=O)CSc3ccc(S(=O)(=O)N(C)C)cc32)cc1Cl | inconclusive: 35.5 µM [activator, single point] |
| S=c1[nH]nc(-c2cc(-c3ccco3)[nH]n2)n1-c1ccccc1Cl | inconclusive: 17.8 µM [activator, partial curve, poor fit] |
| CC(=O)Nc1nc(C)c(-c2csc(Nc3ccc(O)cc3)n2)s1 | inconclusive: 25.1 µM [activator, single point] |
| CCOCCCN(C(=O)c1snc(C(N)=O)c1N)C(C(=O)NCCC(C)C)c1ccc(Cl)cc1 (stereo unspecified) | inconclusive: 22.4 µM [activator, partial curve] |
| CN(C)CCCNC(=O)C[C@H]1C[C@H](C(=O)N2CCOCC2)[C@@]2(CCC3CCCC3)c3[nH]c4cc(-c5ccco5)ccc4c3CCN2C1=O | inconclusive: 39.8 µM [activator, partial curve, poor fit] |
| Cc1ccc(Cn2nnc(C(=O)Nc3cccc(C)c3C)c2N)cc1 | inactive |
| COc1ccc2oc(-c3ccc(C)c(NC(=O)c4ccc5c(c4)OCCO5)c3)nc2c1 | inactive |
| COc1ccc(-n2ncc(C(=O)Nc3ccc4c(c3)OCO4)c2C2CCN(C(=O)OC(C)(C)C)CC2)cc1 | inconclusive: 3.98 µM [activator, full curve, poor fit] |
| O=C(CSC1CCCCC1)Nc1nccs1 | inconclusive: 14.1 µM [activator, partial curve, poor fit] |
| COc1cc2[nH]c(C(=O)N3CCN(c4ccc(F)cc4)CC3)cc2c(OC)c1OC | inconclusive: 35.5 µM [activator, partial curve, poor fit] |
| COCCOC(=O)N(C)C[C@@H]1OCCCC[C@H](C)Oc2ccc(NC(=O)Nc3ccccc3)cc2C(=O)N([C@@H](C)CO)C[C@H]1C | inactive |
| O=C(NCc1ccccc1Br)c1ccc2c(c1)nc1n2CCOC1 | inactive |
| CN1C(=O)CC(Sc2ncccc2C(=O)O)C1=O (stereo unspecified) | inconclusive: 5.62 µM [activator, full curve] |
| CN1/C(=C\C(=O)c2cccs2)Sc2ccccc21 | inactive |
| NC(Cc1ccc(C(F)(F)F)cc1)c1csc(Nc2ccc(C(=O)c3ccccc3)cc2)n1 (stereo unspecified) | inconclusive: 50.1 µM [activator, single point] |
| Cc1ccn2c(Nc3ccccc3)c(-c3ccccn3)nc2c1 | inactive |

| Structure (SMILES) | Potency |
| --- | --- |
| CCC(=O)N1CCN(c2ccc(Cl)cc2NC(=O)c2ccc3c(c2)OCCO3)CC1 | inconclusive: 25.1 µM [activator, single point] |
| N#CC1=C(SCC(=O)NC23CC4CC(CC(C4)C2)C3)NC(=O)C(C#N)C12CCCCC2 (stereo unspecified) | inconclusive: 7.08 µM [activator, full curve] |
| CC(C)Cc1ccc(CN2C(C)C(=O)N(Cc3cn(Cc4ccco4)nn3)CCS2(=O)=O)cc1 (stereo unspecified) | inconclusive: 44.7 µM [activator, single point] |
| Cc1cc(C)c(N(C(=O)CN2C(=O)c3ccccc3S2(=O)=O)C(C(=O)NCC2CCCO2)c2ccc(F)cc2)c(C)c1 (stereo unspecified) | inconclusive: 28.2 µM [activator, partial curve, poor fit] |
| O=C(CCC1N=C2c3ccccc3N=C(SCc3cccc(F)c3)N2C1=O)NCCc1ccccc1 (stereo unspecified) | inactive |
| CC(C)CN(CCCNC(=O)c1cc(-c2cccs2)nc2ccccc12)CC(C)C | inactive |
| COc1ccc(-c2ccc(C(=O)Nc3cccc(N(C)C)c3)c3occc23)c(C)c1 | inconclusive: 28.2 µM [activator, single point] |
| COc1ccc(NS(=O)(=O)c2cccc(C(=O)NN=Cc3ccc(OC)c(O)c3)c2)cc1 | inconclusive: 11.2 µM [activator, partial curve, poor fit] |
| O=C(c1cccs1)N1CC[C@H]2[C@H](CCCN2Cc2cc(F)cc(F)c2)C1 | inactive |
| Cc1ccc(S(=O)(=O)NC(=O)C2(C)CCN2C(=O)Cc2ccc(-c3ccccc3)cc2)cc1 (stereo unspecified) | active: 28.2 µM |
| Cc1ccnc(OC(C(=O)O)C(OCc2ccccc2)(c2ccccc2)c2ccc(C(F)(F)F)cc2)n1 (stereo unspecified) | inconclusive: 50.1 µM [activator, single point] |
| Cc1ccc(C2CC(c3cccs3)=NN2C(=O)CSC2=NCCS2)cc1 (stereo unspecified) | inactive |
| COC(=O)C(CCSC)NC(=O)Cn1ncc2c([nH]c3ccccc32)c1=O (stereo unspecified) | inactive |
| COc1ccc(NC(=O)c2c(NCc3cccs3)sc3c2CCCC3)c(OC)c1 | inconclusive: 44.7 µM [activator, single point] |
| COc1ccc(-c2ccc(C(=O)NCc3ccco3)c3occc23)c(C)c1 | inactive |
| Cc1ccc(C(=O)Nc2cccc(N(C)S(C)(=O)=O)c2)cc1S(=O)(=O)Nc1ccccc1 | active: 35.5 µM |
| Cc1ccc(N=Nc2ccc(O)c(/C=N\NC(=O)c3ccc(N)cc3)c2)cc1C | active: 1.12 µM |
| O=C(O)Cc1sc(-c2cccnc2)nc1-c1ccc(Br)cc1 | inconclusive: 25.1 µM [activator, partial curve, poor fit] |
| COc1ccccc1NC(=O)c1c(C)cc(C)nc1SCC(=O)Nc1ccc(C)c(C)c1 | inconclusive: 3.16 µM [activator, full curve] |
| CCOC(=O)C1=C(O)/C(=C/N(C)C)N=C1C | inconclusive: 11.2 µM [activator, single point] |
